In PubChem BioAssay AID504332 (National Center for Advancing Translational Sciences (NCATS), 2011):
Values joined by “and” are separate entries in the source; they are usually repeats but may differ in a detail not shown here. Equal entries are not always repeated. In all, about 350,000 compounds went through this assay and about 31,000 (8.9%) were called active. This list was built around the results that the source calls inconclusive (neither active nor inactive); the mix of calls is not that of the screen. The call rests on the fitted dose curve; in most records, active means well fitted inhibition curve with a large enough effect; inconclusive means small, poorly fitted or top-dose-only effect; inactive means no such curve, though single readings can be large or run the other way. Potencies beside an inconclusive call are fits to weak or partial responses and may not hold up.

Each compound was assayed against Histone-lysine N-methyltransferase EHMT2 (Homo sapiens) (UniProt Q96KQ7) (assay: qHTS Assay for Inhibitors of Histone Lysine Methyltransferase G9a). Conditions: G9a H3K9 monomethylation, AlphaScreen, 2 h; activity, negative = inhibition: at 59 µM (top of the series) unless noted.
UniProt Q96KQ7, sequence (Q96KQ7 whole entry, looked up): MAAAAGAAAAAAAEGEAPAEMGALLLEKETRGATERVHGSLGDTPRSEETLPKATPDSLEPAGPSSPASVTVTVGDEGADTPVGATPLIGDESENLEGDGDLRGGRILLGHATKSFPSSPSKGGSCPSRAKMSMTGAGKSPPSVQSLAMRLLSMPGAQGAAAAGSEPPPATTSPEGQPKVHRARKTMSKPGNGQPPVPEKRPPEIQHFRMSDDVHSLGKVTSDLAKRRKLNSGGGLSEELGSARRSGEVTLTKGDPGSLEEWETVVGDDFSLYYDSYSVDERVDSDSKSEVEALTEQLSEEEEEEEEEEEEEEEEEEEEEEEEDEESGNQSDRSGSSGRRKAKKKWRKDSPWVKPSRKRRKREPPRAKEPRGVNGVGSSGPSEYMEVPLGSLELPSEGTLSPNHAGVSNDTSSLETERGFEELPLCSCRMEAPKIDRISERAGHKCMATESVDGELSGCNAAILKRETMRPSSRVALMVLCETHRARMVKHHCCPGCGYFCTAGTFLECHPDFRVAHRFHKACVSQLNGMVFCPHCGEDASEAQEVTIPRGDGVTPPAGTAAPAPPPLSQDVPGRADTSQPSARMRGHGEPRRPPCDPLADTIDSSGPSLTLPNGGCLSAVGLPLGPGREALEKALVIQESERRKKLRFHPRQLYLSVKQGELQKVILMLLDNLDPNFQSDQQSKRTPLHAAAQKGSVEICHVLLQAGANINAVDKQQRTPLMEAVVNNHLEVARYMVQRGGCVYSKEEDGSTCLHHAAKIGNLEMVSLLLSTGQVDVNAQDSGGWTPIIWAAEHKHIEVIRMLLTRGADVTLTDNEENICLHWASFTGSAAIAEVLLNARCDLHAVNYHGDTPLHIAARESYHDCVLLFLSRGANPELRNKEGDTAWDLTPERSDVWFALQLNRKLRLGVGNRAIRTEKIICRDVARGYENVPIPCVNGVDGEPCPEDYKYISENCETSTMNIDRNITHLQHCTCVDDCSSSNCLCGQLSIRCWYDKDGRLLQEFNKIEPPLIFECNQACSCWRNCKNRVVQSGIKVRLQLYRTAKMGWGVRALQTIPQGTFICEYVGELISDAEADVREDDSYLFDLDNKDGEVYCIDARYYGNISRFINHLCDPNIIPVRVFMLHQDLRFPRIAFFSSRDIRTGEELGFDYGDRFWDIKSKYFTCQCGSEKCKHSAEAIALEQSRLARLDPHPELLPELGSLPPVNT
Summary of the method: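 Using a bead-based AlphaScreen, monomethylated H3K9 product from 2 h room-temperature reactions (G9a 20 nM, peptide 500 nM, SAM 20 uM) was detected with 0.5 ug/mL rabbit anti-H3K9me1 antibody.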
Further: nearly all actives have a fitted effect of over 75% in size.
On the % scale 0 is the no-effect control and ±100 the full control effect; potency means the concentration at half of the fitted maximal effect; tags describe the fitted curve by direction and shape.

Structure (SMILES) | Potency | activity, negative = inhibition
Cc1cc(C(=O)OCC(=O)N2CC(C)OC(C)C2)ccc1[N+](=O)[O-] (configuration not stated) | inconclusive: 35.5 µM [inhibitor, single point] | –
Cc1ccc(S(=O)(=O)NCc2cccnc2)s1 | inactive | –
CC(=O)c1cccc(OCC(O)CNCCc2ccc(Cl)cc2)c1 (configuration not stated) | inconclusive: 89.1 µM [inhibitor, partial curve, poor fit] | –
COc1ccc2[nH]c3c(N4CCN(Cc5ccc6c(c5)OCO6)CC4)ncnc3c2c1 | active: 50.1 µM | –
CCc1ccc2c(c1)C(C)=CC(C)(C)N2 | inconclusive: 1.12 µM [inhibitor, partial curve, poor fit] | –
Clc1ccc(-c2csc(Nc3cccnc3)n2)cc1 | inconclusive: 31.6 µM [inhibitor, single point] | –
COC(=O)CC1C(=O)NCCN1C(=O)CSc1nc2ccccc2s1 (configuration not stated) | active: 7.08 µM | –
CCc1ccc(CNc2ccc3c(c2)ncn3CC)cc1 | active: 11.2 µM | –
C=CCn1c(SCc2ccc(C(=O)Nc3nccs3)cc2)nnc1-c1ccc(C)c(Cl)c1 | inconclusive: 35.5 µM [inhibitor, single point] | –
CC1CCN(S(=O)(=O)c2ccc3ccccc3c2)CC1 | – | inconclusive: -78% [inhibitor] [at 12.7 µM]
CCCCN(C)CCNC(=O)c1ccc(Cn2c(=O)[nH]c3cc(OC)c(OC)cc3c2=O)cc1 | inactive | –
N#CCSc1nnc(-c2ccccc2O)n1CCc1ccccc1 | – | inactive: 15.8% [at 12.7 µM]
CCOc1ccc(-c2cn(S(=O)(=O)c3cccc4nsnc34)nc2N)cc1 | inconclusive: 35.5 µM [inhibitor, single point] | –
COc1cc(C(=O)NNc2nc3cc4c(cc3s2)OCO4)cc(OC)c1OC | inconclusive: 35.5 µM [inhibitor, partial curve, poor fit] | –
Cc1ccc(CNC(=O)N2CCN(c3ccc(C)cc3)CC2)cc1 | inconclusive: 70.8 µM [inhibitor, partial curve] | –
O=C(/C=C/c1ccc([N+](=O)[O-])cc1)NCCOc1ccc(F)cc1 | inconclusive: 44.7 µM [inhibitor, partial curve, poor fit] | –
CC(OC(=O)c1cccc(S(=O)(=O)N2CCOCC2)c1)C(=O)NC1CCCCC1C (configuration not stated) | inconclusive: 0.316 µM [inhibitor, partial curve, poor fit] | –
Nn1c(=S)[nH]nc(Cc2ccc(O)cc2)c1=O | inconclusive: 28.2 µM [inhibitor, single point] | –
O=C(c1ccccc1)c1ccc(OCC(O)CN2CCCC2)cc1 (configuration not stated) | inactive | –
CNCC(O)COc1cccc(OC)c1 (configuration not stated) | inconclusive: 89.1 µM [inhibitor, single point] | –
CCCCCCCC/C=C\CCCCCCCC(=O)NCCc1ccc(O)c(O)c1 | inactive and inconclusive: 50.1 µM [inhibitor, partial curve] and inconclusive: 37.7 µM [inhibitor, single point] | –
COC(=O)CCC(=O)Nc1ccc(Br)cc1 | – | inconclusive: -88.4% [inhibitor]
COc1ccc(-c2noc(N(c3ccc(F)c(Cl)c3)c3nc(-c4ccc(OC)c(OC)c4)no3)n2)cc1OC | inactive | –
COc1ccc(Br)cc1C(=O)Nc1cccc2ccc(C)nc12 | inactive | –

Structure (SMILES) | Potency | activity, negative = inhibition
CN(C)c1ccc(NC(=O)Nc2csc3ccccc23)cc1 | active: 8.91 µM | –
O=C(CSc1ncn[nH]1)Nc1ccc(OCc2ccccc2)cc1 | inconclusive: 89.1 µM [inhibitor, single point] | –
COc1ccccc1CNC(=O)CN(C)S(=O)(=O)c1ccc(Br)s1 | inactive | –
COc1ccc(N2CCN(C(=O)Cc3ccc(Br)cc3)CC2)cc1 | – | inconclusive: -90.2% [inhibitor]
CCn1c(=O)c2sccc2n2c(CCCC(=O)NCCc3ccc(S(N)(=O)=O)cc3)nnc12 | inactive | –
CCN(CC(=O)Nc1cc(Cl)ccc1C)C(=O)c1nc2nc(C)cc(C)n2n1 | inconclusive: 7.08 µM [inhibitor, single point] | –
COc1cc(C(=O)NC2=C(C#N)CCC2)cc(OC)c1OC | active: 50.1 µM | –
Oc1ccc(F)c2cccnc12 | inactive | –
Cc1c(C(=O)Nc2ccncc2)sc2nc(-c3ccccc3)cn12 | inconclusive: 56.2 µM [inhibitor, partial curve] | –
CCCCCSc1ncccc1C(=O)O | inconclusive: 79.4 µM [inhibitor, single point] | –
COc1cccc(-c2noc(C3CCCN(C(=O)c4ccc(F)cc4)C3)n2)c1 (configuration not stated) | inactive | –
Nc1ccc(N2CCN(c3ccccc3)CC2)c(F)c1 | – | inconclusive: -101% [inhibitor]
CC(C)NCC(O)COc1ccc(Br)cc1 (configuration not stated) | inconclusive: 50.1 µM [inhibitor, partial curve] | –
CC(NC(=O)Cn1nc(C(=O)O)c2ccccc2c1=O)c1ccccc1 (configuration not stated) | inconclusive: 22.4 µM [inhibitor, single point] | –
CN(Cc1ccccc1F)Cc1cc(=O)oc2cc(O)c(Cl)cc12 | inconclusive: 89.1 µM [inhibitor, single point] | –
O=S(=O)(c1ccccc1)N1CCC(c2ccccc2)CC1 | – | inactive: 0.779% [at 2.33 µM]
O=C(CCCCCN1C(=O)c2ccccc2C1=O)Nc1nccs1 | inactive | –
O=C(Nc1ccccc1)N1CCCC2(CCNCC2)C1 | – | inactive: 4.86% [at 12.7 µM]
Cc1ccccc1OCC(=O)N/N=C/c1cccn1C | inconclusive: 89.1 µM [inhibitor, single point] | –
CC(=O)Nc1ccc(NC(=O)C2CCCN(S(=O)(=O)c3ccc4c(c3)CCCC(=O)N4)C2)cc1 (configuration not stated) | inactive | –
CC(C)CN(CC(C)C)C(=O)CS(=O)(=O)Cc1ccccc1 | inconclusive: 22.4 µM [inhibitor, partial curve, poor fit] | –
COc1cc(Br)cc2cc(C(=O)N3CCN(c4ccccn4)CC3)c(=O)oc12 | inconclusive: 89.1 µM [inhibitor, single point] | –
CCN(C(=S)Nc1ccc(C(C)=O)cc1)C1CCCCC1 | inconclusive: 56.2 µM [inhibitor, single point] | –
COc1ccccc1C1CC(c2ccc(Cl)cc2Cl)Nc2nc(N)nn21 (configuration not stated) | inconclusive: 89.1 µM [inhibitor, single point] | –

Structure (SMILES) | Potency | activity, negative = inhibition
Cc1nc(-c2nc(-c3c(C(=O)NN)noc3C)cs2)cs1 | inconclusive: 79.4 µM [inhibitor, partial curve, poor fit] | –
COc1ccc(NC(=O)CC2SC(N3CCOCC3)=NC2=O)c(OC)c1 (configuration not stated) | inconclusive: 39.8 µM [inhibitor, single point] | –
COCCn1nnnc1C(c1ccc2ncccc2c1)N1CCc2ccccc21 (configuration not stated) | active: 50.1 µM | –
CN=C1c2cc3cc(OC)ccc3n2CCN1C | inconclusive: 31.6 µM [inhibitor, single point] | –
O=C(Nc1ccc2c(c1)OCO2)c1ccc(Br)o1 | inactive | –
C[n+]1ccc(/C=N/Nc2nc(Cl)c(C#N)c(Cl)c2Cl)cc1 | inconclusive: 50.1 µM [inhibitor, partial curve] | –
S=C(Nc1cccnc1)N1CCc2ccccc21 | – | inactive: -7.07% [at 12.7 µM]
O=c1[nH]ncc(N2CCCCCC2)c1Cl | inconclusive: 0.251 µM [inhibitor, partial curve, poor fit] | –
CN1CCN(C2=NC(=O)/C(=C/c3ccccc3OS(=O)(=O)c3ccccc3)S2)CC1 | active: 44.7 µM | –
COc1ccccc1C1N(c2ccc(F)cc2)C(=O)C2CCCN21 (configuration not stated) | inconclusive: 25.1 µM [inhibitor, partial curve, poor fit] | –
COc1ccc(C(=O)c2ccc(CC(=O)O)s2)cc1 | inactive | –
COc1cc(NC(=O)CN2C(=O)c3ccccc3C2=O)c(C(=O)O)cc1OC | inconclusive: 50.1 µM [inhibitor, partial curve, poor fit] | –
CNC(=O)c1c[nH]c2ccc(S(=O)(=O)Nc3cccc(SC)c3)cc2c1=O | inconclusive: 22.4 µM [inhibitor, single point] | –
COC(=O)C1=C(O)/C(=C/c2cccc(OC)c2O)N=C1C | inconclusive: 79.4 µM [inhibitor, partial curve, poor fit] | –
Cc1ccc(NC(=O)CSc2ncccn2)cc1S(=O)(=O)N1CCCCC1 | inconclusive: 50.1 µM [inhibitor, partial curve] | –
Cc1ccc(C)c(N2CCN(Cc3nnnn3C3CCCCC3)CC2)c1 | inactive | –
CCCCNS(=O)(=O)c1ccc2nc(SCC(=O)Nc3ccccc3)[nH]c2c1 | inconclusive: 4.47 µM [inhibitor, full curve, poor fit] | –
Cc1ccc(C2NC(C(=O)O)CS2)cc1 (configuration not stated) | active: 31.6 µM | –
CNC(=O)COC(=O)c1ccc2c(c1)NC(=O)C1CCCN21 (configuration not stated) | inconclusive: 70.8 µM [inhibitor, single point] | –
COc1ccc(NC(=O)C2COc3ccccc3C2)cc1Cl (configuration not stated) | inactive | –
C=CCOC(=O)C1=C(C)Nc2[nH]c(=O)[nH]c(=O)c2C1c1ccccc1 (configuration not stated) | inconclusive: 70.8 µM [inhibitor, single point] | –
Cc1ccc(CSc2ccc(S(=O)(=O)N3CCCCC3)cn2)cc1 | inconclusive: 89.1 µM [inhibitor, partial curve, poor fit] | –
CCCSC1=C(C#N)C(c2ccccc2C)C(C(=O)OC)C(=O)N1 (configuration not stated) | inconclusive: 89.1 µM [inhibitor, single point] | –
CN(C)c1ccc(NC(=O)COC(=O)c2cc(=O)c3ccccc3o2)cc1 | active: 10 µM | –
